Experimental data: the BET-seq Pho4 binding data (Le et al. 2018)
This is one part of the list. Values were computed here from the reads of four pooled replicates and scatter widely.

Biological target: T1, Pho4 (S. cerevisiae) (UniProt P07270)
T1 sequence: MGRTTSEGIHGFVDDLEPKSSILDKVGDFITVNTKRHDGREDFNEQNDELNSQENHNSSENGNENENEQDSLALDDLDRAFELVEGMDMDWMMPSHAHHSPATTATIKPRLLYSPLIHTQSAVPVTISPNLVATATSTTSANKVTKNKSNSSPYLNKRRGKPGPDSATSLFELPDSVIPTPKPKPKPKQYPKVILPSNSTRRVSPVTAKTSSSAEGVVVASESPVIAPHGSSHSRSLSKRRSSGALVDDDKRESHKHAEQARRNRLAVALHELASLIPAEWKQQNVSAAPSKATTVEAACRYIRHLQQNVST
Experiment: relative binding free energy (BET-seq); higher = weaker binding
Conditions: reference: library average

Sequence	relative binding free energy [kcal/mol]
CAGGGCACGTGAGTGG	0.12
TTGCGCACGTGATTTA	0.08
TTATTCACGTGGCGTC	0.3
TGGTTCACGTGCTATA	0.19
TCATACACGTGGTTGT	-0.1
TGTGTCACGTGGTTAA	0.11
GACTGCACGTGGATGT	0.01
CTGTGCACGTGCGGGG	-0.03
ACGGGCACGTGGCTTT	-0.09
ATATTCACGTGGGTTT	0.17
TAGTGCACGTGGTTAC	-0.1
GGCTTCACGTGGGTAT	0.1
AGGTGCACGTGAATGA	0.12
AGGTGCACGTGTATCT	-0.01
CTTGTCACGTGGGGAG	-0.14
ACAGTCACGTGAAGTT	0.39
GTAATCACGTGTGGTA	0.21
TGTTACACGTGGATCG	0.08
TTTAACACGTGAAATT	0.27
GAGTTCACGTGCGGGA	0.22
AATGTCACGTGTTCTG	0.15
ATATACACGTGAGGAG	0.19
GGTCACACGTGGGTAT	0.01
CTGTGCACGTGGTATA	-0.25
GGATTCACGTGGTGGC	0.43
GAGTGCACGTGGATGG	0.09

Sequence	relative binding free energy [kcal/mol]
ATTGGCACGTGCGAGA	-0.16
AACTGCACGTGCGGGG	-0.05
TGTGGCACGTGAGCTT	0.05
GTTTCCACGTGTTGGA	0.2
GTTGTCACGTGAACGA	0.31
GATATCACGTGATGTG	0.23
CGTATCACGTGTGGGT	0.17
GATACCACGTGGGGTG	-0.15
TATGGCACGTGCGGCT	-0.12
GTATCCACGTGAGTTG	0.19
TGTGTCACGTGCGTAA	0.05
AAGAGCACGTGTGGTC	-0.05
GTACTCACGTGGCGTG	0.09
TCCAGCACGTGGTGTG	-0.16
GGGGTCACGTGCTTCG	0.03
AGAGGCACGTGGTGGT	-0.1
TACTGCACGTGGGTGG	-0.18
GAGATCACGTGTGTAT	0.24
AGGTGCACGTGGAGAG	0.03
GGTGACACGTGGACTG	0.06
GGGAGCACGTGGATAA	-0.02
ATTGGCACGTGCATTT	-0.25
ATATGCACGTGTAAAT	0.11
TTCGACACGTGTTTGA	0.02
TAGGACACGTGGTGCA	-0.12
GGCTGCACGTGATGGA	0.24

Sequence	relative binding free energy [kcal/mol]
GGATCCACGTGTTAGG	0.03
GGGAGCACGTGATGCT	0.05
GCCAGCACGTGGGGGT	-0.27
TAATTCACGTGCGTAG	0.26
GGGGGCACGTGTGGGG	-0.04
TGTTACACGTGGACGA	0.24
AGTGACACGTGTTTTG	-0.05
TGTAACACGTGAGGGG	0.25
GACGTCACGTGTATAG	0.3
TGTATCACGTGTAATC	0.27
TGGCTCACGTGTTTAA	0.17
GGGGTCACGTGTTGCA	0.13
GAATACACGTGGGGGT	0.08
TAGATCACGTGGTCTA	0.16
TTTGCCACGTGGTATT	-0.07
TACACCACGTGGTGGT	0
TTATGCACGTGAGGTA	0.1
GGCTGCACGTGAGGGG	0.31
TCGTTCACGTGCAGTT	0.28
TTGAGCACGTGGCGAG	-0.18
TTCTTCACGTGGCTGG	0.16
AAGGCCACGTGGCGGG	-0.23
CTGTGCACGTGGGCGG	-0.12
TTGGTCACGTGTATCT	0.25
ATCAGCACGTGGTGGT	-0.21
GGGCACACGTGATCGT	0.25

Sequence	relative binding free energy [kcal/mol]
GGGCGCACGTGTTTGG	-0.06
TACGGCACGTGCGGGT	-0.06
ACAGTCACGTGAGGTG	0.13
TATAACACGTGGGGCG	-0.19
TTTATCACGTGTTCGA	0.14
AAAGGCACGTGTTTGA	-0.1
ATGTCCACGTGGTGCA	0
GTGTGCACGTGCAAGG	-0.11
TGACTCACGTGAATGT	0.44
ATCATCACGTGGTATG	0.22
TAATACACGTGTAGTG	-0.05
TGTAGCACGTGAGGTT	0.19
TGATACACGTGGGGTC	-0.13
GTAGCCACGTGGAAGG	0.13
AAAAGCACGTGGGAGT	-0.18
TGGATCACGTGGGTGA	0.08
AGAGTCACGTGTAATT	0.29
AGTCGCACGTGGGTGA	-0.22
ATTTTCACGTGTCGTT	0.29
TCTGGCACGTGTTTTG	-0.09
TTTTACACGTGGTGTC	0.1
GTGAACACGTGGTTAA	0.07
TTTTACACGTGCGGGT	0.04
TTTCACACGTGTAGGA	0.21
TGTTCCACGTGAGCGG	0.35
TTATTCACGTGTATAT	0.22

Sequence	relative binding free energy [kcal/mol]
GTGGCCACGTGCAGGG	-0.17
AAGGTCACGTGCGAGG	-0.08
TGGGGCACGTGGGAAT	-0.04
TAGTGCACGTGTGGTT	0.13
CGTGCCACGTGGGGTA	-0.23
TTGAACACGTGGTGCT	-0.08
TAGTGCACGTGTGGAT	0.02
AGTGGCACGTGGCATT	-0.14
TTGCGCACGTGGGCGT	-0.23
AAAAGCACGTGTTGTT	-0.15
CTTATCACGTGTTATT	0.29
GTACACACGTGGGGGA	-0.11
TTGCTCACGTGAAGTG	0.4
TCTGCCACGTGGGATT	-0.03
ATGGTCACGTGATTTG	0.37
GTAAACACGTGAGTTT	0.34
TGCGGCACGTGACGGA	0.04
CTAGACACGTGGTGTG	-0.1
AGTGTCACGTGGGCCT	-0.1
AGTGTCACGTGAATAA	0.41
CATCGCACGTGGGGGC	-0.18
AAAGACACGTGGTGTG	-0.06
GTACGCACGTGGGTCT	-0.18
TAAGTCACGTGGTTAA	0
AGTTTCACGTGATAAG	0.25
GAATCCACGTGTAGGG	0.14

Sequence	relative binding free energy [kcal/mol]
AGGTCCACGTGTAGTA	0.07
TGAGCCACGTGATGTT	0.12
GTAATCACGTGGTCGT	0.08
GATTACACGTGTTTAG	-0.05
TTTTACACGTGACTGG	0.19
TTTTGCACGTGGTCGG	-0.09
GTGTGCACGTGCCTTG	-0.13
TGGTTCACGTGCATAA	0.21
TTCTACACGTGGTATT	-0.06
AGTGGCACGTGTGCGA	-0.24
TTTTTCACGTGTCCTG	0.19
TATGACACGTGGTATT	-0.04
TAAGACACGTGAAGTG	0.28
GATTTCACGTGCGGTC	0.28
GGACGCACGTGATTTG	0.14
TTCTTCACGTGCGTTG	0.21
CGTTTCACGTGGGCTG	0.1
AGGTGCACGTGTAGGG	-0.01
TGTCTCACGTGGGTAA	-0.06
GGTTACACGTGTTGTG	0.06
GTGGACACGTGTGCTG	-0.13
CGGAGCACGTGTGGGG	-0.1
ATCGTCACGTGGGGGA	0.03
TATATCACGTGGTAGG	0.09
TGAAACACGTGGGCGT	-0.12
TGTTTCACGTGGTGCG	0.2

Sequence	relative binding free energy [kcal/mol]
TTGGTCACGTGGGGCT	0.04
CTTGACACGTGGTATT	-0.1
TTCGTCACGTGAGGCT	0.36
TGTACCACGTGAGTTG	0.1
CGGGGCACGTGTTCAT	-0.05
ACTTTCACGTGGGGAG	0.06
GTAGGCACGTGGAGAA	-0.07
TTGTTCACGTGGGTGG	0.24
TGTTTCACGTGGGCCG	0.19
ATAAACACGTGGTTAG	-0.01
GCTAACACGTGGTTGT	0.04
TGGAACACGTGGAGAA	0.18
GTGCTCACGTGTGGTC	0.27
AAAGGCACGTGATATT	0.07
GATTGCACGTGAATTT	0.35
TTGTTCACGTGCTGAG	0.25
ATGGCCACGTGTCAGT	-0.03
CCGGACACGTGGTGTG	-0.11
ATGTACACGTGGGTTA	-0.03
GGAGGCACGTGTTTCA	0.12
GGAGGCACGTGGCTTT	-0.06
GCTGGCACGTGTTGAG	-0.09
TTAGGCACGTGACTTA	-0.04
ATGGCCACGTGAAGGC	0.36
GTGACCACGTGTTAGG	-0.07
CTATGCACGTGGAGTG	-0.13

Sequence	relative binding free energy [kcal/mol]
TTTACCACGTGAGATG	0.43
GCGTGCACGTGTGATA	0.09
TGTGGCACGTGTAACA	0.06
GTTATCACGTGGTTAG	0.11
CATGTCACGTGATTTT	0.18
GGGTTCACGTGAATGC	0.44
TAAGTCACGTGAGGCT	0.25
AGTCGCACGTGGTGGC	-0.15
GGGTTCACGTGATAAT	0.49
CATGTCACGTGGGGTA	-0.04
CGGGTCACGTGTATGG	0.13
GGTTTCACGTGAAACG	0.37
TAATTCACGTGAAGGT	0.38
TTGGTCACGTGCGTGC	-0.05
TGAGGCACGTGTAATA	0.01
TCTATCACGTGGTGAG	0.16
TGAATCACGTGTGTGC	0.06
TTTATCACGTGCTAAG	0.1
GGGGACACGTGCTGGG	0
TAGGCCACGTGGGCTA	-0.15
TTCGTCACGTGGTTTT	0.1
TCCGGCACGTGAGTGG	0.31
ACGGTCACGTGTAGTG	0.06
GTGTGCACGTGATTAG	0.25
GGGTTCACGTGGCAGC	0.15
GTTAGCACGTGTGTTC	-0.04

Sequence	relative binding free energy [kcal/mol]
AATTTCACGTGTGCGA	0.22
TTATTCACGTGTGGCC	0.34
ATGTTCACGTGGCTAT	0.19
TAAGACACGTGTGGTT	0.09
ATGGTCACGTGATAGC	0.24
TATGGCACGTGGGAGA	-0.1
TATATCACGTGCATGT	0.08
TTCAACACGTGGTTAT	0.04
TAGGTCACGTGGGATA	0.11
TCGCTCACGTGTGGGT	0.08
ATTGCCACGTGTTCGT	-0.09
GGGGCCACGTGGCGAG	-0.26
ATCGTCACGTGTGGGC	0.13
TCTAGCACGTGTATAT	0.07
GGAGGCACGTGGATGC	-0.08
ATAGTCACGTGTGGCT	0.22
TGGGTCACGTGAGGGG	0.36
ATGGGCACGTGATGCG	-0.07
TGTGGCACGTGAAATA	0.16
TGTCGCACGTGGGTGC	-0.14
TGGTTCACGTGATTGT	0.42
TTTAGCACGTGTAGTT	-0.06
